Results taken from PubChem BioAssay AID624296 (National Center for Advancing Translational Sciences (NCATS), 2012).
Screen size: about 350,000 compounds; about 9,900 (2.8%) were called active. The inconclusive results got no clear call from the source; some entries with a clear call stand among them for comparison. Calls come from the whole dose curve; as a rule, active = well fitted activation curve with a large enough effect; inconclusive = small, poorly fitted or top-dose-only effect; inactive = no such curve, though single readings can be large or run the other way. Potencies of inconclusive entries are left out as doubtful fits.

Test: A quantitative high throughput screen for small molecules that induce DNA re-replication in MCF 10a normal breast cells. For activity, positive = re-replication: % of control where 0% means no effect. Note: nearly all actives have a fitted effect of over 50% in size.
Details: MCF 10A DNA re-replication, Hoechst nuclear intensity, 48 h; activity, positive = re-replication: at 46.1 µM (top of the series)
Potency is the fitted concentration of half-maximal effect; tags give direction and shape of the fitted curve.

Q: With CCCCCC(=O)N/N=C/c1ccc([N+](=O)[O-])o1 as the molecule, how does the “activity, positive = re-replication” value read?
A: Its value is inactive: 28.5%.

Q: Which “activity, positive = re-replication” value does the source give for Cc1ccc(SCC(=O)Nc2nccs2)cc1 here?
A: Its value is inactive: -2.18%.

Q: With CCC(CC)C(=O)c1c[nH]c(C(=O)NCc2ccc(F)cc2)c1 as the molecule, how does the “activity, positive = re-replication” value read?
A: The value was inactive: -0.95%.

Q: For CCOC(=O)C1CCN(C(=O)c2cc3ccc(OC)cc3[nH]2)CC1, which “activity, positive = re-replication” value is on record?
A: The value was inactive: 2.97%.

Q: Which “activity, positive = re-replication” value does the source give for CCOC(=O)C[C@H]1c2ccccc2S(=O)(=O)N1Cc1cc(OC)c(OC)c(OC)c1 here?
A: Its value is inactive: -1.4%.

Q: With CCOc1ccc(-c2nnc(NC(=O)Cc3cc(OC)c(OC)c(OC)c3)o2)cc1 as the molecule, how does the “activity, positive = re-replication” value read?
A: Its value is inactive: 4.34%.

Q: With CNC(=S)NCCc1ccccc1 as the molecule, how does the “activity, positive = re-replication” value read?
A: The value was inactive: 26.3%.

Q: With COC(=O)Cn1cnc2c(Cl)nc(F)nc21 as the molecule, how does the “activity, positive = re-replication” value read?
A: Its value is inactive: 14%.

Q: For CC(=O)c1c(C)nc(-c2ccc3c(c2)OCO3)n1O, which Potency is on record?
A: The Potency was inconclusive [activator, single point].

Q: For O=S(=O)(Nc1c(O)ccc2ccccc12)c1ccccc1, which Potency is on record?
A: The Potency was inconclusive [activator, single point].

Q: For Cc1ccc(C)c(NC(=O)c2cnccn2)c1, which Potency is on record?
A: The Potency was inconclusive [activator, single point].

Q: For Cc1c(Cl)cccc1N1C(=O)C(N2C(=O)c3cccc([N+](=O)[O-])c3C2=O)C1c1cccs1 (stereo unspecified), which Potency is on record?
A: The Potency was inconclusive [activator, single point].

Q: For CN1C(=O)[C@H]2[C@@H](C3CC3)N3C(=O)CN(Cc4ccc(-c5ccccc5)cc4)C(=O)[C@@]3(C)[C@H]2C1=O, which activity, positive = re-replication is on record?
A: Its activity, positive = re-replication is inconclusive: -27.8% [activator].

Q: Which Potency does the source give for COC(=O)c1cccc(NS(C)(=O)=O)c1 here?
A: The Potency was inconclusive [activator, single point].

Q: For COC(=O)C1=CNC=C(C(=O)OC)C1c1cccc2ccccc12, which Potency is on record?
A: The Potency was inconclusive [activator, single point].

Q: With CCN(CC)CCNC(=O)c1ccc(NC(=O)COc2ccc3c(c2)CCC3)cc1 as the molecule, how does the Potency read?
A: Its Potency is inconclusive [activator, partial curve, poor fit].

Q: For CCc1ccc(S(=O)(=O)/N=C2/C=C(Sc3ncn[nH]3)C(=O)c3ccccc32)cc1, which Potency is on record?
A: The Potency was active: 3.26 µM.

Q: Which Potency does the source give for COc1ccccc1N1CCN(S(=O)(=O)c2ccc3c(c2)NC(=O)CS3)CC1 here?
A: The Potency was inconclusive [activator, partial curve, poor fit].

Q: For CCOCCn1c(SC(C)C(C)=O)nc2c1c(=O)[nH]c(=O)n2C (stereo unspecified), which “activity, positive = re-replication” value is on record?
A: The value was inactive: 4.15%.

Q: Which Potency does the source give for CS(=O)(=O)N(CC(=O)Nc1ccc(CC#N)cc1)c1ccc(C23CC4CC(CC(C4)C2)C3)cc1 here?
A: The Potency was inconclusive [activator, full curve, poor fit].

Q: Which Potency does the source give for COC(=O)c1sc2nc(N3CCCCC3)c3c(c2c1N)CCCC3 here?
A: The Potency was active: 7.08 µM.
